# Out of some 420,000 compounds screened, about 64,000 (15%) were called active. The shares of active, inactive and inconclusive entries below differ from those in the screen. Calls follow the shape of the dose curve; as a rule, active = well fitted inhibition curve with a large enough effect; inconclusive = small, poorly fitted or top-dose-only effect; inactive = flat fitted curve, though single readings scatter. Potencies of inconclusive entries are left out as doubtful fits.
# Assay: qHTS for Inhibitors of human tyrosyl-DNA phosphodiesterase 1 (TDP1): qHTS in cells in absence of CPT; also: nearly all actives have a fitted effect of over 55% in size
# Settings: DT40 Tdp1-/- hTDP1 cells, no CPT, ATP luminescence, 48 h; activity change, negative = growth inhibition: at 46.2 µM (top of the series) unless noted
# Summary of the method: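 DT40 Tdp1-/-;hTDP1 cells, no CPT (DMSO vehicle only), 400 cells/well; compounds pin-transferred; ≥48 hr, 37 °C; CellTiter-Glo 30 min RT dark, luminescence read.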
# % is scaled to controls: 0 for no effect and ±100 for the full control effect; potency is read from the fitted curve at half-maximal effect; tags tell the direction and shape of the fitted curve.
SMILES,Potency,"activity change, negative = growth inhibition"
Cc1ccc(S(=O)(=O)N2[C@@H](c3ccc(Br)cc3)C(C(=O)O)=C[C@H]2C(C)(C)C)cc1,"inconclusive [inhibitor, single point]",
Cc1cc(C(=O)NC2CCC(C)CC2)c(C)o1 (stereo unspecified),"inconclusive [inhibitor, single point]",
C=C(C)CN=C1NN=C(c2cc(C)n(-c3ccc(C)cc3)c2C)CS1,active: 11.6 µM,
O=C(CSc1nnc(CNC(=O)c2cccs2)o1)Nc1ccc(Br)cc1,,inactive: 13.1%
O=c1c2ccccc2cnn1CCOc1ccccc1,,inconclusive: -33.1% [inhibitor]
C=CCn1c(-c2oc3nc(-c4ccccc4)cc(-c4ccccc4)c3c2N)n[nH]c1=S,"inconclusive [inhibitor, single point]",
O=C(CNC(=O)c1ccco1)Nc1ccc(N2CCCCCC2)cc1,"inconclusive [inhibitor, full curve, poor fit]",
O=C(NCC(c1ccc2c(c1)OCO2)N1CCN(c2ccccc2)CC1)c1ccccc1 (stereo unspecified),active: 10.3 µM,
CC(C)N(C(=O)CSc1nnnn1-c1ccc2c(c1)OCO2)C(C)C,"inconclusive [inhibitor, single point]",
CSCC[C@H](NC(=O)OC(C)(C)C)C(=O)N/N=C/c1ccc2nccnc2c1,active: 11.6 µM,
O=C(COC(=O)/C=C/c1ccc(Cl)cc1)NC1CCCC1,,inconclusive: -31.5% [inhibitor]
Cc1noc(C)c1COc1ccccc1C(=O)N(C)CC(=O)Nc1ccc(F)cc1,,inactive: -15.2%
CC(C)Oc1ccc(C(=O)Nc2nc3c(s2)CC(C(C)(C)C)CC3)cc1 (stereo unspecified),active: 13 µM,
COc1cc(S(=O)(=O)n2cnc(C)c2)ccc1Br,"inconclusive [inhibitor, single point]",
Cc1ccc(-n2[nH]c(C)c(/C=C3/C=Nc4ccccc43)c2=O)cc1C,,inactive: -0.247%
CCOc1cc(CN2CCSCC2)ccc1O,"inconclusive [inhibitor, partial curve]",
CCCOc1ccc(C(C)=O)cc1CSCCC#N,"inconclusive [inhibitor, single point]",
CC(NC(=O)C1CCN(c2nnc(N3CCCC3=O)s2)CC1)c1ccccc1 (stereo unspecified),,inactive: -9.85%
COc1ccc(-c2[nH]nc3c2C(c2ccoc2)C(C#N)=C(N)O3)cc1 (stereo unspecified),"inconclusive [inhibitor, single point]",
CN1CCN(C(=O)C2=C[C@@H](c3csc4ccccc34)C[C@@H](OCc3ccc(CO)cc3)O2)CC1,active: 18.4 µM,
Cc1oc2ncn(CC(C)C)c(=O)c2c1C(=O)N(Cc1ccccc1)C(C)C,"inconclusive [inhibitor, single point]",
Cc1cc(C)cc(C(=O)NC(CC(N)=O)c2ccc(N3CCC(Br)CC3)c([N+](=O)[O-])c2)c1 (stereo unspecified),"inconclusive [inhibitor, partial curve, poor fit]",
COc1ccc(-n2cc(CN[C@H]3CCCCNC3=O)c(-c3cccc(F)c3)n2)cc1,active: 5.8 µM,
O=S(=O)(c1ccc(F)cc1)N1CCCC(c2nc(-c3ccc(F)cc3)no2)C1 (stereo unspecified),"inconclusive [inhibitor, single point]",

SMILES,Potency,"activity change, negative = growth inhibition"
CC(C)CCC[C@@H](C)[C@H]1CC(=O)C2=C3CC[C@H]4C[C@@H](O)CC[C@]4(C)[C@H]3CC[C@@]21C,"inconclusive [inhibitor, single point]",
O=C(Nc1ccc(S(=O)(=O)N2CCOCC2)cc1)c1ccc(Cl)cc1Cl,active: 20.6 µM,
COc1ccc(-n2c(COc3cccc(C)c3)nnc2SCC(=O)O)cc1,,inactive: -13%
O=C(NCCN1CCOCC1)NC1(C(F)(F)F)Oc2ccccc2O1,"inconclusive [inhibitor, single point]",
O=c1c2ccccc2nc2n1CCc1c-2[nH]c2ccccc12,"inconclusive [inhibitor, full curve]",
O=C(/C=C/c1ccccc1)N1CCN(Cc2cc(=O)n3nc(-c4ccccc4Cl)sc3n2)CC1,"inconclusive [inhibitor, single point]",
COc1cc(OC)c(NC(=O)c2cn(C)c(=O)c3cc(OC)c(OC)cc23)cc1Cl,,inactive: -14.5%
Cn1c(SCC(=O)C(C)(C)C)nnc1-c1ccccn1,,inactive: 27.4%
C#C[C@]1(OC(C)=O)CC[C@H]2[C@@H]3CCC4=C/C(=N/O)CC[C@@H]4[C@H]3CC[C@@]21CC,active: 18.8 µM,
Cn1c(=O)c(=O)n(C)c2cc(S(=O)(=O)N3CCN(Cc4ccccc4)CC3)ccc21,"inconclusive [inhibitor, single point]",
CC(C)[C@H](NC(=O)c1ccco1)C(=O)OCC(=O)N1CCc2ccccc21,,inconclusive: -33.4% [inhibitor]
Cc1ccc(O)c(NC(=O)CCSc2nc(-c3ccco3)cc(C(F)(F)F)n2)c1,active: 18.4 µM,
CCOP(=O)(OCC)C(NC(=O)Nc1ccc(Cl)cc1)c1ccccc1 (stereo unspecified),,inactive: -28.6%
COc1ccc(Cl)cc1NS(=O)(=O)c1c(C)[nH]c(=O)[nH]c1=O,"inconclusive [inhibitor, single point]",
Cc1sc2ncnc(SCC(=O)NNC(=O)c3ccco3)c2c1C,,inactive: -4.89%
O=C(CN1C(=O)C2(SCC(=O)N2c2ccc(Cl)cc2)c2ccccc21)NCCc1ccccc1 (stereo unspecified),active: 18.4 µM,
CN(C)CCn1c(=O)n(-c2ccc(F)cc2)c(=O)c2c3c(sc21)CCCCC3,"inconclusive [inhibitor, single point]",
COc1ccc2[nH]c(C(=O)c3ccccc3)cc2c1,active: 0.15 µM,
O=C(/C=C/C=C/c1ccc2c(c1)OCO2)N1CCCCC1,"inconclusive [inhibitor, single point]",
O=C(COC(=O)c1ccc(F)cc1)Nc1ccccc1N1CCOCC1,"inconclusive [inhibitor, partial curve, poor fit]",
c1ccc(CNCCNCc2ccccc2)cc1,,inactive: -28.7%
O=C(C1CCCC1)N1CCC(CC2CC(c3ccc(Cl)cc3)=NO2)(C(=O)NCC2CCCCC2)CC1 (stereo unspecified),,inactive: -21.4%
CN(C)C(=O)c1cccc(-c2cnc3sc(NCc4ccc5c(c4)OCO5)nn23)c1,active: 13 µM,
CCN(CCNS(=O)(=O)c1ccc2c(c1)oc(=O)n2C)c1ccccc1,,inactive: -28%

SMILES,Potency,"activity change, negative = growth inhibition"
CS(=O)(=O)N1CCc2cc(C(=O)Nc3ccc(COCC(F)(F)F)cc3)ccc21,"inconclusive [inhibitor, partial curve]",
COc1ccc(OC)c(C2CC(=O)c3c([nH]c(C(=O)OCC4CCCO4)c3C)C2)c1 (stereo unspecified),active: 5.17 µM,
COc1cc(NC(=O)c2ccccc2[N+](=O)[O-])ccc1NC(=O)c1cc2ccccc2o1,active: 8.2 µM,
COc1ccc(S(=O)(=O)n2nc(C)c(S(=O)(=O)N3CCCCCC3)c2C)cc1C,,inactive: 6.68%
CC(=O)Nc1ccc(NC(=O)c2cccc(C(=O)OC(C)C)n2)cc1,,inconclusive: -35.5% [inhibitor]
Cc1ccc(Cn2ncc3c(N4CCN(CC#N)CC4)ncnc32)cc1,"inconclusive [inhibitor, single point]",
CCOc1c(Nc2cccc(Cl)c2)c(=O)c1=O,,inactive: -14.5%
CCc1nn(-c2cc(Oc3cccc4ccccc34)nc(-c3ccccc3)n2)c(N)c1C#N,active: 16.4 µM,
C[C@H](CO)N1C[C@H](C)[C@H](CN(C)C(=O)Nc2ccnc(N3CCOCC3)c2)OCc2cnnn2CCCC1=O,,inactive: -21.7%
O=C(NNc1cccc(Cl)n1)Nc1cccc(C(F)(F)F)c1,"inconclusive [inhibitor, single point]",
CCC(C)(C)n1nnnc1C(c1ccc2ncccc2c1)N1CCN(c2nc3ccccc3s2)CC1 (stereo unspecified),"inconclusive [inhibitor, single point]",
Clc1cccc(CN2CCN(c3ncccn3)CC2)c1Cl,"inconclusive [inhibitor, single point]",
CN1CCN(c2nc3c(S(=O)(=O)c4ccc(Cl)cc4)nnn3c3ccsc23)CC1,"inconclusive [inhibitor, single point]",
CC(=O)Nc1ccc(C)cc1-c1nc2ccccc2n(CC(=O)c2ccc(C)c(C)c2)c1=O,"inconclusive [inhibitor, single point]",
CCCC(=O)Nc1ccc(-c2cn3cccnc3n2)cc1,"inconclusive [inhibitor, partial curve]",
O=C1Nc2cc(C(F)(F)F)ccc2N2CCCCC12 (stereo unspecified),"inconclusive [inhibitor, partial curve]",
CCOC(=O)c1c(N)n(-c2ccc(CC)cc2)c2nc3ccccc3nc12,"inconclusive [inhibitor, single point]",
COC(=O)Cc1nnc(NC(=O)c2ccccc2)s1,,inactive: -27.9%
Cc1ccccc1-n1c(SCC(=O)NC(N)=O)nc2sc(-c3ccccc3)cc2c1=O,"inconclusive [inhibitor, single point]",
O=C(COC(=O)c1ccc2ncsc2c1)Nc1ccc(OC(F)(F)F)cc1,"inconclusive [inhibitor, single point]",
CCOc1ccccc1NS(=O)(=O)c1ccc(N2CCCCS2(=O)=O)cc1,"inconclusive [inhibitor, partial curve]",
Cc1ccc(-c2ccc(/C=C3\SC(N4CCOCC4)=NC3=O)o2)cc1,active: 9.2 µM,
O=C(NCCc1csc(-c2ccc(C(F)(F)F)cc2)n1)C(=O)Nc1ccc(F)c(Cl)c1,"inconclusive [inhibitor, single point]",

# Reference: PubChem BioAssay AID686978 (National Center for Advancing Translational Sciences (NCATS), 2013)
